Screen size: about 43,000 compounds; about 200 (0.47%) were called active. The shares of active, inactive and inconclusive entries below differ from those in the screen. Calls follow the shape of the dose curve; as a rule, active = well fitted cell-killing curve with a large enough effect; inconclusive = small, poorly fitted or top-dose-only effect, or effect the other way; inactive = flat fitted curve, though single readings scatter. Potencies of inconclusive entries are doubtful fits and often do not repeat.
experiment: Cell viability qHTS assay in S16 Pmp22-F2sN cells; settings: S16 Pmp22-F2sN Schwann cells (luciferase reporters placed in the Pmp22 gene) viability, CellTiter-Glo, 24 h; activity change, negative = cytotoxicity: at 57.5 µM (top of the series); also: nearly all actives have a fitted effect of over 65% in size
Summary of the method: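 Seed 500-1,000 S16 Pmp22-F2sN cells per well in phenol-red-free DMEM with 10% heat-inactivated FBS; pin-add 23 nL compound; incubate 24 h at 37C; add CellTiter-Glo, wait 15 min protected from light; read luminescence.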
% is scaled to controls: 0 for no effect and ±100 for the full control effect; potency is read from the fitted curve at half-maximal effect; tags tell the direction and shape of the fitted curve.

SMILES | Potency | activity change, negative = cytotoxicity
COc1ccc(CNC(=O)c2cc3c(-c4ccccc4F)nn(C)c3s2)c(OC)c1 | inconclusive: 39.8 µM [cytotoxic, partial curve, poor fit] | 
Cc1ccc(Nc2ccc(N3CCN(C(=O)c4ccc([N+](=O)[O-])cc4Cl)CC3)nn2)cc1 | inconclusive: 28.2 µM [cytotoxic, single point] | 
Cc1nnc(N2CCN(C(=O)Nc3cc(F)ccc3F)CC2)c2nn(-c3ccc(Cl)cc3)c(C)c12 | inconclusive: 28.2 µM [cytotoxic, single point] | 
CC(=O)N1CCc2c(sc3c2c(=O)n(CCc2ccccc2)c(=O)n3Cc2ccc(F)cc2)C1 | inconclusive: 39.8 µM [cytotoxic, single point] | 
CC1CCN(C(=O)Cn2c(=O)n(-c3ccc(Cl)cc3)c(=O)c3c4c(sc32)CCC4)CC1 |  | inactive: 16.3%
CCOc1ccc2nc(NC(=O)c3nc(SC(C)C)ncc3Cl)sc2c1 | inconclusive: 31.6 µM [cytotoxic, single point] | 
CCOc1ccc(CCNC(=O)CSCc2nc(-c3cccc(C)c3)oc2C)cc1OCC | inconclusive: 39.8 µM [cytotoxic, partial curve, poor fit] | 
Cc1ccc(-c2cnc(C3CC3)o2)cc1S(=O)(=O)Nc1cccc(C#N)c1 | inconclusive: 14.1 µM [cytotoxic, partial curve, poor fit] | 
CN(Cc1ccccc1)C(=O)CSc1c2c(nc3ccc(Cl)cc13)CCCC2 | inconclusive: 28.2 µM [cytotoxic, single point] | 
Cc1ccc(CNC(=O)CN2Cc3ccccc3C2=O)cc1 |  | inactive: -0.842%
COc1ccc(NS(=O)(=O)c2cc(-c3onc(C)c3C)ccc2C)c(OC)c1 | inconclusive: 39.8 µM [cytotoxic, partial curve, poor fit] | 
CCOC(=O)c1ccccc1NC(=O)N(Cc1ccc(CC)cc1)Cc1cn[nH]c1-c1ccc(OC)cc1 | inconclusive: 39.8 µM [cytotoxic, single point] | 
COc1ccccc1NC(=O)CN(C)S(=O)(=O)c1cccc2cccnc12 | inconclusive: 5.62 µM [rising, partial curve, poor fit] | 
CCC1=C(c2ccc(C)cc2)S(=O)(=O)N=C1N1CCC(C(=O)Nc2ccccc2C(=O)OC)CC1 | inconclusive: 39.8 µM [cytotoxic, single point] | 
COc1ccc(CNC(=O)CCc2c(C)nn(-c3ccc(N4CCOCC4)nn3)c2C)c(OC)c1 | inconclusive: 0.0316 µM [rising, full curve, poor fit] | 
CN(C)c1ccc(C(CNC(=O)c2ccc(C(C)(C)C)cc2)N2CCCC2)cc1 (configuration not stated) | inconclusive: 39.8 µM [cytotoxic, single point] | 
CC(=O)c1ccc(NC(=O)CSc2nnc3ccc(-c4ccc(F)cc4)nn23)cc1 | inconclusive: 2.24 µM [rising, full curve, poor fit] | 
Cc1ccc(-n2c(=O)c3ccc(C(=O)NCc4ccco4)cc3n(Cc3ccccc3Cl)c2=O)cc1 |  | inactive: -18.4%
COc1ccccc1C(=O)Nc1nnc(SCc2cc(=O)c3ccccc3[nH]2)s1 | inconclusive: 15.8 µM [cytotoxic, partial curve, poor fit] | 

SMILES | Potency | activity change, negative = cytotoxicity
Cc1cccc(C)c1Nc1sc(C(=O)c2ccccc2)c(N)c1S(=O)(=O)c1ccccc1 |  | inactive: -0.963%
Cc1nn(-c2ccc(N3CCOCC3)nn2)c(C)c1CCC(=O)NCc1ccc(Cl)cc1 | inconclusive: 39.8 µM [cytotoxic, single point] | 
COc1ccc(Cn2c(C(=O)O)c(CNCc3ccco3)c3ccc(C)cc32)cc1 | inconclusive: 28.2 µM [cytotoxic, partial curve, poor fit] | 
CCc1cccc(NC(=O)C2CCN(S(=O)(=O)c3ccc(Br)s3)CC2)c1 | inconclusive: 39.8 µM [cytotoxic, partial curve, poor fit] | 
Cc1ccccc1NC(=O)c1cc2c([nH]c1=O)CC(C)(C)CC2=O |  | inactive: 10.8%
COc1ccc(Nc2nc3c(S(=O)(=O)c4ccccc4)nnn3c3ccc(Cl)cc23)cc1 | inconclusive: 39.8 µM [cytotoxic, single point] | 
CCS(=O)(=O)N1CCCc2cc(C(=O)Nc3cc([N+](=O)[O-])ccc3C)ccc21 | inconclusive: 39.8 µM [cytotoxic, single point] | 
Cc1cccc(NC(=O)CSc2nc3c([nH]c4ccccc43)c(=O)n2-c2cc(C)cc(C)c2)c1 |  | inactive: 7.62%
COc1cc(OC)cc(C(=O)Nc2nc(-c3nnn(-c4ccc(C)cc4)c3C)ns2)c1 | inconclusive: 31.6 µM [cytotoxic, single point] | 
CCCn1c(=O)sc2cc(NC(=O)c3ccccc3Cl)ccc21 | inconclusive: 39.8 µM [cytotoxic, single point] | 
O=C(NCc1c(-n2cccc2)sc2c1CCCC2)Nc1cccc(C(F)(F)F)c1 | inconclusive: 39.8 µM [cytotoxic, single point] | 
Cc1cc(Nc2ccccc2C)c2cccc(C)c2n1 | inconclusive: 7.08 µM [rising, single point] | 
Cc1ccc(Cl)c2sc(NC(=O)c3ccc(S(=O)(=O)N4CCCC4)cc3)nc12 | inconclusive: 39.8 µM [cytotoxic, single point] | 
CCc1ccc(NC(=O)Cn2c(=O)c3cccn3c3ccccc32)cc1 | inconclusive: 12.6 µM [cytotoxic, partial curve, poor fit] | 
COc1cc(C(=O)Nc2ccc3nc4n(c(=O)c3c2)CCCCC4)cc(OC)c1OC | inconclusive: 39.8 µM [cytotoxic, single point] | 
CC(C)OCCCNC(=O)c1cn(C)c2ccc(S(=O)(=O)N(C)C3CCCCC3)cc2c1=O | inconclusive: 3.55 µM [cytotoxic, partial curve, poor fit] | 
Cc1c(C(=O)N2CCCC2)oc2c1-c1nn(CC(=O)NCc3ccc(OC(C)C)cc3)cc1CC2 | inconclusive: 39.8 µM [cytotoxic, single point] | 
O=C1c2[nH]nc(-c3ccccc3O)c2C(c2cccc(OCc3ccccc3)c2)N1CCCO (configuration not stated) | inconclusive: 28.2 µM [cytotoxic, single point] | 
